Measured values taken from the supplement of paper PMC10338343.
± gives the standard deviation. Whole data set: some 3,700 sequences, median “pre-steady-state target cleavage rate” near 0.02, cut for the highest 2% near 0.23. This is a selection; strong and weak results do not stand in their true shares.

The sequences below were run on MILI (PIWIL2) piRISC loaded with Kctd7 piRNA (26 nt) (assay: pre-steady-state target cleavage rate (min^-1); MIWI and MILI are mouse PIWI proteins and EfPiwi is from a freshwater sponge; tags in brackets are library labels; higher = faster piRNA-guided slicing of the target). Details: guide: Kctd7 piRNA 5'p-UGUUAAUCUCUCAGAGAAGGUGACAG; auxiliary factor: 500 nM mouse GTSF1.
Summary of the method: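 At 33 °C in HEPES–potassium acetate buffer, a transcribed, DNA-blocked target RNA library […] was exposed for 0–8 or 0–960 min to 1 nM active affinity-purified piRISC carrying a single synthetic guide, with or without 500 nM GTSF1 partner protein. Uncleaved targets were sequenced and normalised to depth and to weakly complementary targets. With three trials pooled and k3 capped at 0.0001 min^-1, a burst-and-steady-state fit produced the pre-steady-state cleavage rate.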
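Also: 1 nM active piRISC with 0.1 nM target library at 33 °C single turnover.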

Sequence	pre-steady-state target cleavage rate
UAGUCUGUCUCCUUCUCUGAGAGAUAAACA	0.07 ± 0.018
UAGUGACAGACCUUCUGUGAGAGAUAAACA	0.0443 ± 0.016
UAGUGACACACCAUCUCUGAGACAUUAACA	0.0225 ± 0.0045
UAGUGACAGUGCUUCUCUGAGAGAUAAAGA	< 0.0001
UAGUGACAGACCUUCUGUGACAGAUUAACA	0.0122 ± 0.0065
UAGUGUGUCACCUUCUCUGAGAGAUUAAUA	0.236 ± 0.037
UAGUGACAGUGGAAGACUGAGAAGAUUAACA	< 0.0001
UAGUCUGUCUCCUUCUCAGAGAGAUUAACA	0.115 ± 0.0099
UAGUGACAGUGGAAGUCUGAGAGACUAACA	< 0.0001
UAGUCUGACACCUACUCUGAGAGAUUAACA	0.12 ± 0.0058
UAGUGUGUCAGCUUCUCUGAGAGAUUAACA	0.18 ± 0.014
UAGUGACUCACGUUGUCUGAGAGAUUAACA	0.114 ± 0.0092
UAGUGACAGUGGAAGACUGAGGGAUUAACA	< 0.0001
UAGUGACACAGCCUUCUCUGAGAGAUUAACA	0.0834 ± 0.0087
UAGUGACAGUGCUUCCUCUGAGAGAUUAACA	0.0401 ± 0.0044
UAGUGAGUCUCCUUCUCUGAGUGAUUAACA	0.00446 ± 0.0024
UAGUGUGUCCACCUUCUCUGAGAGAUUAACA	0.152 ± 0.021
UAGUGACACAGCUUCUCUGAGAGAUUUACA	0.0492 ± 0.01
UAGUCUGUCACCUUAUCUGAGAGAUUAACA	0.165 ± 0.013
UAGUGAGACACCUUCUCUGAGAGUUUAACA	0.154 ± 0.038
UAGUCUGUCAGCUUCUCUGAGAGUUUAACA	0.0628 ± 0.0096
UAGUCUGAGUCCUUCUCUGAGAGAUUAUGA	0.00664 ± 0.0032
UAGUCUGUCACCUACUCUGAGAGAUUAACA	0.17 ± 0.0087

Sequence	pre-steady-state target cleavage rate
UAGUGACACACCUUCUCUGAGGGAUUAACA	0.101 ± 0.015
UAGUGACAGUCCUUCUUUGAGAGAUUAACA	0.0638 ± 0.0078
UAGUGACUCACCUUCACUGAGAGAUUUUGA	0.048 ± 0.016
UAGUGAGUCACCAUCUCUGUGAGAUUAACA	0.0357 ± 0.0047
UAGUGACUGACCUUCUCUGACAGAUUAACA	0.059 ± 0.019
UAGUGAGUCACCUUCUCUGAGACAAUAACA	0.00805 ± 0.0051
UAGUCUGUCACCUUCUCUGAGAGAUUUACA	0.193 ± 0.026
UAGUGACAGUGGAUCUCUGAGAUAUUAACA	< 0.0001
UAGUGAGUCACGUUCUCUGAGAGAUUUACA	0.0932 ± 0.023
UAGUGACAGUCCUUCUCUGAGAGAUUAAUCA	0.0628 ± 0.011
UAGUGACACACCUUGACUGAGAGAUUAACA	0.0582 ± 0.022
UAGUGAGAGUCCUUCUCUGAGAGAUUAACA	0.0775 ± 0.015
UAGUGAGUCACCUUCACUGAGACAUUAACA	0.0967 ± 0.024
UAGUCUGUCACCCUCUCUGAGAGAUUAACA	0.238 ± 0.018
UAGUCUGUCACCUUGUCUGAGAGAUUAUCA	0.077 ± 0.018
UAGUCUGUGUCCUUCUCUGAGAGAUUAAGA	0.0324 ± 0.0063
UAGUGAGUCACCUUCUCUGGAGAGAUUAACA	0.00454 ± 0.0043
UAGUGACAGUCCUUCUGUGUGAGAUUAACA	0.0171 ± 0.0028
UAGUGUGUCACCAUCUCUGAGACAUUAACA	0.063 ± 0.013
UAGUGACACACCUACUCUGUGAGAUUAACA	0.0409 ± 0.0069
UAGUCUGUCACCUUCUCUGAGAGAUUAUACA	0.224 ± 0.043
UAGUGUGACACCUUCUCUGAGAGAUUUACA	0.19 ± 0.046
UAGUCUGUCACCUUCUCAGAGACAUUAACA	0.118 ± 0.019

Sequence	pre-steady-state target cleavage rate
UAGUGACAGUGGAUGACUGAGAGAUUAACA	< 0.0001
UAGUGACAGUGCUUCUCUGAGAGAUUAACA [g2:g19:cont:t1A]	0.0405 ± 0.0054
UAGUGACACUCCUUCUCUGAGAGUUUAACA	0.0236 ± 0.0075
UAGUGACACACCUUGUCAGAGAGAUUAACA	0.0569 ± 0.0091
UAGUGACAGACCAUCUCUGAGAGUUUAACA	0.0108 ± 0.0049
UAGUGACAGCCCUUCUCUGAGAGAUUAACA	0.103 ± 0.013
UAGUGACACACCUUACUCUGAGAGAUUAACA	0.0582 ± 0.0058
UAGUGUGUCACCUUCACUCAGAGAUUAACA	0.0272 ± 0.01
UAGUGACACACGUUCUCAGAGAGAUUAACA	0.0665 ± 0.011
UAGUGACUCACGAUCUCUGAGAGAUUAAGA	0.0103 ± 0.005
UAGUCUGUCACCAUCUCUGAGAGAUUAUGA	0.00931 ± 0.0048
UAGUGACAGACCUUCUCUGAGAGCUUAACA	0.0417 ± 0.0084
UAGUGACAGUGGAUGUCUGAGACAUUAACA	< 0.0001
UAGUGUGUCACCUUCUCUGUCAGAUUAACA	0.00798 ± 0.004
UAGUCUGUCACCUCCUCUGAGAGAUUAACA	0.215 ± 0.011
UAGUGAGUCACCUUCUCUGAGAGAUUAUGA	0.0953 ± 0.026
UAGUGACUCACCUUCUCAGAGAGUUUAACA	0.04 ± 0.0095
UAGUGACAGUGCUUCUUCUGAGAGAUUAACA	0.00475 ± 0.0027
UAGUGACAGACCUUCUCUGAGAGAUUAAUCA	0.0797 ± 0.012
UAGUCUGUCACCUUCUCUGAGAGGUUAACA	0.198 ± 0.025
UAGUGAGUCACCUUGUCUGAGAGAUUAUGA	0.00612 ± 0.0051
UAGUGUGUCAGGAUCUCUGAGAGAUUAUGA	0.00413 ± 0.0029
UAGUGAGUCACCUUCUGAGAGAGAUAUUGA	0.00466 ± 0.0046

Sequence	pre-steady-state target cleavage rate
UAGUCUGUCUCCUUCUCUGAGAGAUUAACA	0.176 ± 0.011
UAGUGAGUGACCUUCUCUGAGAGAUUAAGA	0.102 ± 0.028
UAGUGUGUCACCUUCUGAGAGAGAUUAACA	0.101 ± 0.013
UAGUGACUCACCUUGUGUGAGAGAUUAACA	0.0834 ± 0.0088
UAGUGACAGUGCUUCUGUGUGAGAUUAACA	0.0167 ± 0.0033
UAGUGACACACCUUCUCUGAGAGGUUAACA	0.0913 ± 0.011
UAGUGAGUCACCUUCUCUGAGUGAUUAACA	0.0142 ± 0.0063
UAGUGAGUCACCUUCUGUGAGACAUUAACA	0.0469 ± 0.011
UAGUGACAGUACUUCUCUGAGAGAUUAACA	0.0199 ± 0.004
UAGUGUGUCACCUACACUGAGAGAUUAACA	0.15 ± 0.011
UAGUGACAGACCUUGUCUCAGAGAUUAACA	0.0128 ± 0.0035
UAGUGACAGACCUUCUCUGAGAGACUUAACA	0.0355 ± 0.013
UAGUGACUCACCUUCUCUGAGAGAUUACA	0.117 ± 0.028
UAGUGACAGACCUUUCUGAGAGAUUAACA	0.0108 ± 0.0065
UAGUGACAGUGGAUUCUCUGAGAGAUUAACA	0.00448 ± 0.0014
UAGUCUGUCAGCUUCACUGAGAGAUUAACA	0.0681 ± 0.0072
UAGUGUGUCACCUUCUCUGCGAGAUUAACA	0.11 ± 0.016
UAGUGAGUCACCUUCUCUGAGAGUUUAUCA	0.132 ± 0.049
UAGUGACACUCCUUGUCUGAGAGAUUAACA	0.0837 ± 0.015
UAGUGUGUCACAUUCUCUGAGAGAUUAACA	0.184 ± 0.014
UAGUGACACACGUUCUGUGAGAGAUUAACA	0.0626 ± 0.011
UAGUGAGUCACCUUCUCCGAGAGAUUAACA	0.394 ± 0.084
UAGUGACAGUGGUUCUCUGAGAGAGUAACA	< 0.0001
